{"source": "PubChem BioAssay AID651820", "about": "(National Center for Advancing Translational Sciences (NCATS), 2012)", "note": "About 12,000 (3.5%) of roughly 340,000 compounds were called active. The inconclusive results got no clear call from the source; some entries with a clear call stand among them for comparison. Calls follow the shape of the dose curve; as a rule, active = well fitted inhibition curve with a large enough effect; inconclusive = small, poorly fitted or top-dose-only effect, or another doubt; inactive = no such curve, though single readings can be large or run the other way. No potency is given beside an inconclusive call; the fits are too rough. % is scaled to controls: 0 for no effect and ±100 for the full control effect; potency is read from the fitted curve at half-maximal effect; tags tell the direction and shape of the fitted curve."}
{"test": "qHTS Assay for Inhibitors of Hepatitis C Virus (HCV)", "conditions": "Huh7.5.1 HCVcc-Cre (HCVcc is cell-culture hepatitis C virus) infection, luciferase reporter, 44 h; activity change, negative = inhibition: at 41.8 µM (top of the series) unless noted", "method_in_brief": "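Cells (1,000/well) were plated 4 h before compound, then infected with HCVcc-Cre virus (~0.5 moi). After 44 h further culture, infection was read as luciferase luminescence following a 15 min substrate incubation at room temperature.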"}
{"smiles": "CC1CCN(S(=O)(=O)c2cc(C(=O)NC3(C)CCS(=O)(=O)C3)ccc2Br)CC1", "note": "(centres undefined)", "activity change, negative = inhibition": "inactive: -1.29%"}
{"smiles": "COCCCNC(=O)c1cc(Sc2ccc(F)cc2)nc2ccccc12", "Potency": "inconclusive [inhibitor, single point]"}
{"smiles": "C/C(=C\\C(=O)O)C(=O)Nc1nccs1", "activity change, negative = inhibition": "inactive: 15.9%"}
{"smiles": "COc1ccc(S(=O)(=O)N2CCN(c3nc(-c4cccnc4)nc4ccccc34)CC2)cc1", "Potency": "inconclusive [inhibitor, single point]"}
{"smiles": "COc1ccc(CNC(=O)Cn2ccc(N)nc2=O)cc1", "Potency": "inconclusive [inhibitor, partial curve, poor fit]"}
{"smiles": "CCOC(=O)c1ccc(NC(=O)C(=O)NCc2ccc(/C=C(/C#N)C(=O)NCCOC)o2)cc1", "Potency": "inconclusive [inhibitor, partial curve]"}
{"smiles": "CCC1(C)Cc2c(sc3nnn(CC(=O)Nc4ccc(Cl)cc4)c(=O)c23)CO1", "note": "(centres undefined)", "Potency": "active: 11.2 µM"}
{"smiles": "O=C(NCCCN1CCCC1)C1CCN(C(=O)c2cc3sccc3n2Cc2ccc(F)cc2)CC1", "Potency": "active: 25.1 µM"}
{"smiles": "O=C(CCCCC(=O)OC1CCCCC1)OC1CCCCC1", "activity change, negative = inhibition": "inactive: 14.1%"}
{"smiles": "COc1cccc(NC(=S)N2CCN(c3ccccn3)CC2)c1", "activity change, negative = inhibition": "inactive: 1.85%"}
{"smiles": "CC(NCC(O)COC1CCC(C(C)(C)C)CC1)c1ccccc1", "note": "(centres undefined)", "Potency": "inconclusive [inhibitor, single point]"}
{"smiles": "CCOc1cc(NC(=S)NCCCN(C)C)c(OCC)cc1NC(=O)c1cccs1", "Potency": "inconclusive [inhibitor, partial curve]"}
{"smiles": "CC(C)NCC(O)(c1ccc(Cl)cc1)c1ccc(Cl)cc1", "activity change, negative = inhibition": "inactive: -29.2%"}
{"smiles": "COCCn1c(SCC(=O)N2CCCCC2)nc2c([nH]c3ccccc32)c1=O", "activity change, negative = inhibition": "inactive: -6.38%"}
{"smiles": "COc1cc(NC(=O)COc2cccc(C)c2C)ccc1NC(=O)c1ccco1", "Potency": "inconclusive [inhibitor, full curve, poor fit]"}
{"smiles": "Cc1sc(NC(=O)c2cccc(N3C(=O)CCC3=O)c2)nc1-c1ccccc1", "Potency": "inconclusive [inhibitor, partial curve]"}
{"smiles": "CCOc1ccc(/C=C2/C(=O)N(c3ccc(OC)cc3)C(=S)N2CC(=O)OC)cc1OCC", "Potency": "inconclusive [inhibitor, full curve]"}
{"smiles": "CC(=O)Nc1cccc(C(=O)OC(C)C(=O)Nc2ccc(S(=O)(=O)N3CCCC3)cc2)c1", "note": "(centres undefined)", "Potency": "inconclusive [inhibitor, single point]"}
{"smiles": "CC(=O)N(C(C)=O)c1ncnc2c1c(-c1ccc(Cl)cc1)nn2C(C)(C)C", "Potency": "inconclusive [inhibitor, single point]"}
